Results on nine compounds are retold here after the supplement of paper PMC4604168 (melanoma cell lines).

This is one part of the list. Repeats are few or missing, and single values can be far off.

Some test systems named below: G361; IPC-298; IST-MEL1; LB2518-MEL; LOXIMVI; MEL-HO; MZ2-MEL; MeWo; RPMI7951; RVH-421.
What all share (assay): cell count relative to DMSO control; melanoma cells; higher = more viable cells
Holding throughout (conditions): library dose: standard library concentration; 72 h
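Note: cells treated in 1,536-well plates, then fixed and DAPI-stained, with nuclei counted from automated high-throughput microscope images.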

Regarding `COc1cc([C@@H]2c3cc4c(cc3[C@@H](O[C@@H]3O[C@@H]5CO[C@@H](C)O[C@H]5[C@H](O)[C@H]3O)[C@H]3COC(=O)[C@H]23)OCO4)cc(OC)c1O` [etoposide] + CCN(CC)CCNC(=O)c1c(C)[nH]c(/C=C2\C(=O)Nc3ccc(F)cc32)c1C [sunitinib] (first compound 0.1 µM, partner dose 2 µM), the cell count in the assay on G361 came to 83.9%; in the assay with IPC-298, 71.8%; with IST-MEL1, 112%; in the assay with LB2518-MEL, 75.6%; in the assay on LOXIMVI, 154%; with MEL-HO it was 93.9%. Also, the cell count with MZ2-MEL is 84.5%; in the assay with MeWo it was 55.5%; with RPMI7951 it was 98.6%; in the assay with RVH-421 it was 105%.
Regarding `COc1cc([C@@H]2c3cc4c(cc3[C@@H](O[C@@H]3O[C@@H]5CO[C@@H](C)O[C@H]5[C@H](O)[C@H]3O)[C@H]3COC(=O)[C@H]23)OCO4)cc(OC)c1O` [etoposide] + CC(C)(C)c1cnc(CSc2cnc(NC(=O)C3CCNCC3)s2)o1 [SNS-032] (first compound 0.1 µM, partner dose 0.05 µM), the cell count is 92.8% with G361; 88.1% in the assay with IPC-298; 74.4% in the assay on IST-MEL1; 80.8% in the assay with LB2518-MEL; 73.3% in the assay on LOXIMVI; 93.1% with MEL-HO. The cell count came out at 82% in the assay with MZ2-MEL, 92.1% in the assay on MeWo, 35.4% with RPMI7951 and 84.9% in the assay with RVH-421.
Consider `CCN(CC)CCNC(=O)c1c(C)[nH]c(/C=C2\C(=O)Nc3ccc(F)cc32)c1C` [sunitinib] + CN(C)S(=O)(=O)c1ccc2c(c1)/C(=C/c1cc3c([nH]1)CCCC3)C(=O)N2 [SU6656] (first compound 2 µM, partner dose 2 µM), for which the cell count in the assay with G361 amounted to 70.9%; in the assay on IPC-298, 62.6%; with IST-MEL1, 75.1%; with LB2518-MEL it was 42.3%; with LOXIMVI, 76.3%; in the assay on MEL-HO it was 80.5%. The cell count came out at 87.8% with MZ2-MEL, 57.3% with MeWo, 58.9% in the assay on RPMI7951 and 510% in the assay with RVH-421.
Regarding `C[C@]1(O)C[C@@H](c2nc(-c3ccc4ccc(-c5ccccc5)nc4c3)c3c(N)nccn32)C1` + Clc1ccc(Nc2nnc(Cc3ccncc3)c3ccccc23)cc1 [vatalanib] (first compound 2 µM, partner dose 10 µM), the cell count is 64.4% in the assay on G361; 58.7% in the assay on IPC-298; 74.1% in the assay with IST-MEL1; 72.8% in the assay with LB2518-MEL; 36.8% with LOXIMVI; 60.1% in the assay on MEL-HO. The cell count with MZ2-MEL is 63.3%; with MeWo, 63.9%; with RPMI7951, 91.5%; in the assay on RVH-421 it was 76.4%.
For the compound `CCN(CC)CCNC(=O)c1c(C)[nH]c(/C=C2\C(=O)Nc3ccc(F)cc32)c1C` [sunitinib] + O=C(O)[C@@H]1[O][Sb](=[O])([O][Sb]2(=[O])[O][C@H]([C@H](O)CO)[C@H](O)[C@H](C(=O)O)[O]2)[O][C@H]([C@H](O)CO)[C@@H]1O [stibogluconate] (first compound 2 µM, partner dose 10 µM), the cell count with G361 was 53.3%; in the assay with IPC-298, 65.7%; in the assay on IST-MEL1 it was 93.4%; with LB2518-MEL, 53%; with LOXIMVI, 147%; in the assay with MEL-HO it was 97.2%. Moreover, the cell count in the assay on MZ2-MEL stood at 88.3%; with MeWo, 66.1%; in the assay with RPMI7951 it was 64.5%; in the assay on RVH-421, 417%.
With `CCN(CC)CCNC(=O)c1c(C)[nH]c(/C=C2\C(=O)Nc3ccc(F)cc32)c1C` [sunitinib] + Nc1ncn([C@H]2C[C@H](O)[C@@H](CO)O2)c(=O)n1 [decitabine] (first compound 2 µM, partner dose 0.5 µM), the cell count in the assay with G361 amounted to 87.6%; in the assay on IPC-298 it was 65.2%; with IST-MEL1, 75.2%; with LB2518-MEL, 63.7%; with LOXIMVI, 181%; in the assay on MEL-HO, 75.1%. For the same compound, the cell count in the assay with MZ2-MEL stood at 85.1%; with MeWo it was 60.3%; in the assay on RPMI7951, 82.2%; with RVH-421 it was 112%.
As for `Cn1cnc2c(F)c(Nc3ccc(Br)cc3Cl)c(C(=O)NOCCO)cc21` [selumetinib] + CC(C)CCN1c2nc(Nc3cc(F)c(O)c(F)c3)ncc2N(C)C(=O)C1C [BID1870] (first compound 0.075 µM, partner dose 1 µM), the cell count came to 62.1% in the assay on G361; 45.9% in the assay with IPC-298; 78.9% with IST-MEL1; 47.9% in the assay on LB2518-MEL; 81.1% in the assay on LOXIMVI; 67.8% in the assay with MEL-HO. In addition, the cell count in the assay on MZ2-MEL was 61.8%; with MeWo, 55.4%; with RPMI7951, 91.6%; with RVH-421, 68%.
For `COc1cc([C@@H]2c3cc4c(cc3[C@@H](O[C@@H]3O[C@@H]5CO[C@@H](C)O[C@H]5[C@H](O)[C@H]3O)[C@H]3COC(=O)[C@H]23)OCO4)cc(OC)c1O` [etoposide] + O=C(O)c1ccc(-c2c[nH]c3ncc(-c4ccccc4)cc23)cc1C1CCCC1 [GSK650394] (first compound 0.1 µM, partner dose 0.8 µM), the cell count with G361 stood at 53.2%; in the assay with IPC-298 it was 55.7%; in the assay with IST-MEL1 it was 65.2%; in the assay on LB2518-MEL, 82.8%; with LOXIMVI, 118%; with MEL-HO, 76.9%. Moreover, the cell count came to 76% in the assay with MZ2-MEL, 80% in the assay on MeWo, 106% in the assay on RPMI7951 and 101% in the assay on RVH-421.
`COc1cc([C@@H]2c3cc4c(cc3[C@@H](O[C@@H]3O[C@@H]5CO[C@@H](C)O[C@H]5[C@H](O)[C@H]3O)[C@H]3COC(=O)[C@H]23)OCO4)cc(OC)c1O` [etoposide] + Cc1cc(N2CCOCC2)cc2[nH]c(-c3c(NC[C@@H](O)c4cccc(Cl)c4)cc[nH]c3=O)nc12 [BMS536924] (first compound 0.1 µM, partner dose 1 µM): the cell count in the assay with G361 was determined as 95.1%; with IPC-298, 82.8%; in the assay with IST-MEL1 it was 104%; with LB2518-MEL, 98.8%; in the assay with LOXIMVI, 74.9%; in the assay with MEL-HO, 98.1%. In addition, the cell count in the assay with MZ2-MEL turned out to be 71.9%; in the assay with MeWo, 74.1%; in the assay on RPMI7951, 107%; with RVH-421 it was 108%.
